Measurements taken from paper PMC6919601, “Identification of Plasmodium dipeptidyl aminopeptidase allosteric inhibitors by high throughput screening” (PLoS ONE, 2019).
The whole screen tested about 110,000 compounds, of which about 230 (0.21%) showed an effect of 50% or more. Some of the results follow.

Biological target: DPAP1 (Plasmodium falciparum, UniProt Q8IIJ9)
Assay: primary screen, percent inhibition; read by cleavage of a fluorogenic dipeptide substrate; higher = more effect of the substance
Set-up: species or system P. falciparum D10 trophozoite lysates; single well
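Note: 30 min substrate incubation versus DMSO and 10 µM JCP410 controls.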

Sequence of DPAP1 (Q8IIJ9 whole entry, looked up): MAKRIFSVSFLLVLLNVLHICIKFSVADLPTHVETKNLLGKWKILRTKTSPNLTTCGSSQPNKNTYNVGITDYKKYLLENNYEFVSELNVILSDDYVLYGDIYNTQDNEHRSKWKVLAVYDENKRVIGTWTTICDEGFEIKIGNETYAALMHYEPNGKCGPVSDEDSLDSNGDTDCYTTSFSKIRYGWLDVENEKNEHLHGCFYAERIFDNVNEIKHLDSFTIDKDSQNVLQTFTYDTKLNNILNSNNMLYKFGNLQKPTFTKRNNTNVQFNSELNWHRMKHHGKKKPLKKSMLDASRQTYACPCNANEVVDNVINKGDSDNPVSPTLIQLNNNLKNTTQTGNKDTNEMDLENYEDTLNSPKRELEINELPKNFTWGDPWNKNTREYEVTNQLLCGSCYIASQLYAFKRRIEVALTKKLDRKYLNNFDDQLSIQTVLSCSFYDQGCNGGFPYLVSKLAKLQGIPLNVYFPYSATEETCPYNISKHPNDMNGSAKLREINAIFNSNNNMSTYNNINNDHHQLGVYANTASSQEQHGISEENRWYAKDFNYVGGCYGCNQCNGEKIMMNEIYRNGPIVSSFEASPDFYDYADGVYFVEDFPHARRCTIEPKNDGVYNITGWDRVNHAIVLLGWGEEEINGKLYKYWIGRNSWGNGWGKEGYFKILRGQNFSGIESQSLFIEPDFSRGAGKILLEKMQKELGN

| Structure (SMILES) | % Inhibition @ 10 uM [%] |
| --- | --- |
| COc1ccc(CCNCc2c(C(=O)O)n(Cc3ccccc3C)c3cc(C)ccc23)c(OC)c1 | 2.28 |
| COc1ccccc1S(=O)(=O)Cc1ccc(C(=O)N2CCOCC2)o1 | 2.14 |
| COc1cccc(-c2n[nH]c(SCc3cc(=O)n4oc(C)cc4n3)n2)c1 | 3.12 |
| Cc1nn2cc(-c3ccc(Cl)cc3)nc2s1 | -0.386 |
| COc1ccc(CNc2cc(C)ccn2)cc1 | -1.86 |
| COc1ccc(C(CC(=O)NCc2ccccn2)N2Cc3ccccc3C2=O)cc1 (centres unmarked) | 2.65 |
| Cc1nc2ccccc2c(=O)n1-c1ccc(O)cc1 | -4.82 |
| O=C(O)CC1NC(=O)c2ccccc21 (centres unmarked) | -9.82 |
| O=C1NC(=O)/C(=C\c2ccc(Br)cc2)S1 | -1.05 |
| CC1CCN(c2c(NCc3ccc(C(=O)N4CC=C(c5ccccc5)CC4)cc3)c(=O)c2=O)CC1 | 2.76 |
| CC(C)N(Cc1ccccc1)C(=O)c1ccccc1Br | 0.135 |
| COCCCN1C(=O)C(O)=C(C(=O)c2ccccc2)C1c1ccc(C(C)(C)C)cc1 (centres unmarked) | -3.34 |
| Cc1cc(/C=C2/C(=N)N3C(=NC2=O)SN=C3S(=O)(=O)CC(C)C)c(C)n1Cc1ccccc1 | 0.163 |
| CCCCS(=O)(=O)N1CCC(Oc2ccc(-n3cnnn3)cc2)CC1 | 3.88 |
| CC1CCCN(CCCNC(=O)C2CCN(S(=O)(=O)N3CCC4(CC3)OCCO4)CC2)C1 (centres unmarked) | 0.514 |
| CC1(C)CC(=O)C2=C(C1)OC(N)=C(C#N)C2c1ccc(Br)o1 (centres unmarked) | -3.13 |
| COc1c(I)cc(CC(NC(=O)OC(C)(C)C)C(=O)NCC#N)cc1I (centres unmarked) | -6.46 |
| COc1cccc(C(=O)NCCC2=CCCCC2)c1 | -4.89 |
| O=C(O)C1CSC(c2ccc(F)cc2)N1C(=O)Cc1ccc(Cl)cc1 (centres unmarked) | -5.51 |
| N#Cc1cc2nc(O)[nH]c2cc1C#N | 1.76 |
| Cc1ccsc1/C=c1\sc2nc(-c3cccs3)nn2c1=O | -1.52 |
| CCNC(=O)CCSc1ccc(C(C)(C)C)cc1 | -0.425 |
| Cc1cc(NC(=O)c2ccc3c(Cl)c4c(nc3c2)CCCC4)no1 | 3.6 |
| Cc1ccc2c(CNCCc3ccco3)c(C(=O)O)n(Cc3ccccc3)c2c1 | 3.12 |
| Cc1ccc(C)c(NCN2C(=O)C3CCCCC3C2=O)c1 (centres unmarked) | 0.324 |
| CC[C@H](NC(=O)[C@H](CS(=O)(=O)Cc1ccccc1)NC(=O)N1CCOCC1)C(=O)c1nccn1C | -5.21 |

| Structure (SMILES) | % Inhibition @ 10 uM [%] |
| --- | --- |
| CC1(C)CC(=O)c2cc(-c3ccccc3)n(-c3ccc(F)cc3)c2C1 | -3.14 |
| CCC(C)NC(=O)C1(C)CCC(=O)N1CCc1ccc(C)cc1 (centres unmarked) | -1.34 |
| CSc1nc2c(cc1C#N)CCCC2 | -6.82 |
| Cc1ccc(-c2noc(/C=C/c3ccccc3)n2)cc1 | -3.06 |
| O=C(O)c1cc(NC(=O)C(c2ccccc2)c2ccccc2)cc(C(=O)O)c1 | 6.31 |
| Cn1c(=O)c2c(ncn2CC(=O)Nc2cccnc2)n(C)c1=O | 3.65 |
| CCOC(=O)C1=C(CNCCc2ccc(OCC)cc2)NC(=O)NC1c1ccccc1 (centres unmarked) | -1.3 |
| Cc1ccccc1-c1cc(C(=O)N2CCOCC2)c2ccccc2n1 | -5.19 |
| CCN(Cc1ccccc1)C(=O)c1cc2c(=O)oc3ccccc3c2s1 | 4.24 |
| CCCC[C@H](NC(=O)[C@H](CC(C)C)NC(=O)OCc1ccccc1)C(=O)C1Cc2ccccc2C1=O (some centres unmarked) | -1.41 |
| CC1CCC(N2CCN(CCOCCO)CC2)CC1 (centres unmarked) | -7.68 |
| CCOc1ccc(CCNCc2c(C(=O)O)c(C)n(Cc3c(F)cccc3Cl)c2C)cc1 | 1.41 |
| COc1ccc(-c2csc(/C(C#N)=C/c3ccc(C)cc3)n2)cc1 | 0.467 |
| N#Cc1c(-c2ccc(Cl)cc2)cc(-c2ccccc2)nc1SCc1ccccc1 | -3.88 |
| COc1ccc(/C=C2/NC(=O)N(Cc3ccc(F)cc3)C2=O)cc1O | 5.83 |
| O=C(O)CCC/N=C/c1c(O)[nH]c2ccccc12 | 3.04 |
| CC(C)n1c(SCC(=O)NCc2ccccc2)nc2c(oc3ccccc32)c1=O | 0.0695 |
| COc1ccc(C)cc1N(CC(=O)NC1CC1)S(C)(=O)=O | 2.5 |
| Cc1ccc2c(cnn2C(=O)CCCC(=O)NCc2cccnc2)c1 | 11.1 |
| C=CCNC(=O)c1onc(C)c1Cl | -1.7 |
| CSc1ncccc1C(=O)N1CCN(S(=O)(=O)c2ccc(F)cc2)CC1 | -5.03 |
| COc1ccc(-c2cc(C(F)(F)F)n3ncc(C(=O)NCc4cn(C)nc4C)c3n2)cc1OC | 2.32 |
| CC(C)c1ccc(/C=C/C(=O)Nc2cccc(Cl)c2)cc1 | -3.71 |
| CCCN1CCC(N2CCN(CCO)CC2)CC1 | 2.5 |
| O=C1CC(Cc2ccc(Cl)cc2)C(=O)N1c1ccc(F)cc1 (centres unmarked) | 3.65 |
| CC(=O)Nc1cccc(NC(=O)c2ccc(C(=O)Nc3cccc(NC(C)=O)c3)nc2)c1 | 5.31 |

| Structure (SMILES) | % Inhibition @ 10 uM [%] |
| --- | --- |
| O=C(Nc1cccc(Cl)c1)N1CCN(c2ccc(F)cc2)CC1 | -2.03 |
| CC1=C(C)CC(C(=O)Nc2ccccc2Br)C(C(=O)O)C1 (centres unmarked) | 6.97 |
| N#C/C(=C\c1ccc(O)cc1)c1nc2ccccc2[nH]1 | -2.18 |
| Cc1cccc(C)c1NC(=O)Cn1c(=O)sc2ccccc21 | 4.44 |
| CCOc1ccc(NC(=O)/C(C#N)=C\c2c(C)[nH]c3ccccc23)cc1 | 2.05 |
| Cc1ccc(-c2cn3nc(N4CCCC(C(=O)NCCc5ccccc5)C4)sc3n2)cc1 (centres unmarked) | 8.36 |
| O=C(Nc1cccc(C(F)(F)F)c1)c1sc(-c2ccccc2)nc1-c1ccc([N+](=O)[O-])cc1 | -2.15 |
| CCc1ccccc1OCCN(CC)CC | 4.57 |
| Cc1cccc(OCC(=O)Nc2cc(Cl)cc(Cl)c2)c1 | -5.95 |
| Cc1ccc(S(=O)(=O)N2CCC(C(=O)NC3CCCCC3C)CC2)cc1 (centres unmarked) | 3.88 |
| CC(NC(=O)C1CCN(c2nc3ccsc3c(=O)s2)CC1)c1ccccc1 (centres unmarked) | 2.17 |
| CO/C(O)=C1\C(C)=NC2=C(C(=O)CC(c3cccs3)C2)C1c1ccc(OC)cc1OC (centres unmarked) | 0.238 |
| CCCCC(=O)Nc1cccc(-c2cn3ccsc3n2)c1 | 3.99 |
| CC(CNCc1c(C(=O)O)n(C)c2ccccc12)c1ccccc1 (centres unmarked) | -1.44 |
| O=C(NCCc1ccc(Cl)cc1)C(NS(=O)(=O)c1cccc2nsnc12)c1ccccc1 (centres unmarked) | -3.23 |
| CCCCN1C(=O)c2[nH]nc(-c3ccccc3O)c2C1c1ccc(O)c(OC)c1 (centres unmarked) | -1.35 |
| Sc1nc2ccccc2n1C1CCCCC1 | 12.2 |
| CC(=O)c1cc2c(C)cc(=O)oc2cc1O | -5.26 |
| COc1ccc(S(=O)(=O)NCc2csc3c2CCCC3)cc1F | 6.64 |
| Cc1cc(C)c(S(=O)(=O)NCc2csc(-c3ccccc3)n2)cc1C | 0.953 |
| COC(=O)C1=CN(C)C=C(C(=O)OC)C1c1cccc(O)c1 | -1.48 |
| CCN1CCN(C(=O)C2CCN(S(=O)(=O)c3ccc4[nH]c5c(c4c3)CCCCC5)CC2)CC1 | -2.25 |
| O=C(O)Cn1c(SCCOc2ccccc2)nc2ccccc21 | -12.1 |
| COc1cc(C2SCC(=O)N2CCN2CCCCC2)cc(OC)c1OC (centres unmarked) | 2.36 |
| CCOc1ccc(C(=O)C2=C(O)C(=O)N(c3ccccn3)C2c2ccccc2F)c(C)c1 (centres unmarked) | 6.27 |
| CCOC(=O)C1=C(C(F)(F)F)Nc2ncnn2C1c1ccc(C)cc1 (centres unmarked) | 1.73 |

| Structure (SMILES) | % Inhibition @ 10 uM [%] |
| --- | --- |
| c1ccc(-c2nonc2-c2ccccc2)cc1 | 1.7 |
| Cc1ccc(NC(=O)c2ccc([N+](=O)[O-])cc2Cl)cc1C | 4.03 |
| COCCCNC(=O)c1cc(S(=O)(=O)N2CCCC(C)C2)ccc1F (centres unmarked) | -3.78 |
| CC(C)(C)NC(=O)C1CCC(CNS(=O)(=O)c2cccc3nsnc23)CC1 (centres unmarked) | -8.02 |
| O=C(c1cccc(Br)c1)N1CCN(S(=O)(=O)N2CCCCC2)CC1 | -2.05 |
| c1ccc(-c2ccc(-c3[nH]c(-c4c[nH]c5ccccc45)nc3-c3ccccc3)cc2)cc1 | -0.274 |
| CC(C)OCCCNC(=O)c1nnc(-c2cccc(Cl)c2)o1 | -0.602 |
| O=C(Nc1cccnc1Cl)C1CC(c2ccc(F)cc2)=NO1 (centres unmarked) | 1.62 |
| Cc1cc(C)cc(NC(=O)C2CCN(S(C)(=O)=O)CC2)c1 | 2.13 |
| CC(=O)Nc1ccc2nc(SCC(=O)Nc3ccccc3)sc2c1 | 0.983 |
| COc1ccc2cc3c(NC(=O)COc4cccc(C)c4)[nH]nc3nc2c1 | 8.81 |
| CCc1ccc(CNCc2cccs2)cc1 | -4.67 |
| Cc1ccccc1-c1nc(CS(=O)CC(=O)NC(C)C)c(C)o1 (centres unmarked) | -1.05 |
| CC(=O)c1cnc(Nc2nc(-c3ccccc3)c3cc(Cl)ccc3n2)nc1C | -3.76 |
| COc1cccc(NC(=O)COc2cccc(C)c2)c1 | -6.67 |
| CCCCOc1ccccc1NC1=NS(=O)(=O)c2ccccc21 | 2.92 |
| Cc1ccc(-c2cc(C(=O)NCCCn3ccnc3)no2)cc1 | -3.33 |
| OC(COc1ccc(C23CC4CC(CC(C4)C2)C3)cc1)CN1CCOCC1 (centres unmarked) | 0.878 |
| CCCC1Nc2ccc(C(=O)O)cc2C2C=CCC12 (centres unmarked) | 11 |
| CCC(=O)N(CCc1ccccc1)C1CC(=O)N(c2ccccc2)C1=O (centres unmarked) | 3.8 |
| Cc1ccc(S(=O)(=O)c2c(O)nc3cc(C(=O)N4CCOCC4)ccc3c2O)cc1 | -0.264 |
| COc1ccc(NC(=O)c2sc3nc4c(cc3c2N)CCCC4)cc1OC | 3.24 |
| CSC1=NSC2=NC(=O)/C(=C\c3cc(C)n(Cc4ccccc4)c3C)C(=N)N12 | 3.48 |
